Measurements: the supplement of paper PMC11417369
± gives the standard deviation of the averaged measurements. The list shows a part of the results.

Tested on: PfAP2-EXP AP2 domain (GST-tagged)
Assay: gcPBM binding intensity (ln(normalized median fluorescence intensity)); higher = stronger DNA binding
How it was run: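 Using an Agilent 4 × 180k array, primer-extended double-stranded 36-bp intergenic genomic probes and negative controls were exposed for 1 h to GST-fused P. falciparum DNA-binding domains expressed in E. coli. Binding was carried out in 1× PBS with 1% milk, 0.2 mg/ml BSA, 0.5% salmon testes DNA and 0.03% Triton X-100, and protein was detected with Alexa488 anti-GST antibody and a 488 nm scan. Binding intensity is the highest Masliner-normalised natural-log median intensity across replicate spots of either probe orientation.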

| Sequence | gcPBM binding intensity (ln) |
| --- | --- |
| TATGACCTTAGAAATTGTACAAGAAAAAATGTTACA [XGTACX_site7084] | 8.79 ± 0.39 |
| GTTATAAATAAATACACACATACAAAAATATGACGT [CACACA_site1154] | 8.5 ± 0.44 |
| ATATAAAATACATGGGTGCAATATATTAAACAAATA [GTGCAC_site9421] | 9.33 ± 0.18 |
| ATCGTGAATAATATCTGTACATATGAACACATATAT [XGTACX_site952] | 8.64 ± 0.32 |
| TAAAGGTGAACAATACGTACATAAGAACTTATGAGG [XGTACX_site4216] | 8.8 ± 0.38 |
| TAAATAATTTCACGAATGACAAAGATATAATAAGTT [CACACA_negctrl_site1430] | 8.63 ± 0.41 |
| TCTGTAAATACGTGCACACACAAATCACAAATGTGA [CACACA_site330] | 8.95 ± 0.25 |
| ATAAATACACACAAGTGTACATACTTCTATAAATAT [XGTACX_site1845] | 8.32 ± 0.22 |
| ATACATATATATATGTGTACATATTATATATACATA [XGTACX_site8420] | 8.36 ± 0.3 |
| TTTCCATATATAGAACGTACAAAGATCTTTGTTACT [XGTACX_site8972] | 8.66 ± 0.51 |
| TTTTTTTTTATGTGCACACAAAAGATGCTTATATTT [CACACA_site2348] | 8.89 ± 0.085 |
| TGCATATACATATGTAGTACAATAATTTGAAAAAAA [XGTACX_site5239] | 8.43 ± 0.27 |
| TAGCTTTTGCCTTTTTTTAAAAAAAAATAAATAAAT [TGCATGCA_negctrl_site242] | 8.19 ± 0.53 |
| TATATATATTTATACACACAAACATAATACTACTTA [CACACA_site2022] | 8.43 ± 0.33 |
| TATATATGGTATAATTGTACTAACGCCAACTATACC [XGTACX_site5853] | 8.59 ± 0.44 |
| ATATATATATATATAAAGTGAAGTATGAGGGAAATA [XGTACX_negctrl_site497] | 10.1 ± 0.3 |
| TTATTATTTTATAACACACACATATAGATTATAGCT [CACACA_site6787] | 8.38 ± 0.4 |
| AAAAATTAAATATAAAGTACAAAATTAAAATCTTAA [XGTACX_site931] | 8.32 ± 0.33 |
| TATGTATGTATTAATGCGCACACAAAAAATAACAAT [CACACA_site8551] | 9.03 ± 0.36 |
| TTTTGTATTTATGGATGTACATAATATGTTTTAAAC [XGTACX_site3278] | 8.66 ± 0.37 |
| TTTCGTAACTATTTGTGTACATATATATATATATAT [XGTACX_site2920] | 10.3 ± 0.29 |
| ATTTTCTTTTCCATAGTGCAATATAATTATCCATCA [GTGCAC_site9547] | 9.03 ± 0.37 |

| Sequence | gcPBM binding intensity (ln) |
| --- | --- |
| ATAAATATATGAAATATACACACTTCTTTGGTATTA [CACACA_site456] | 8.28 ± 0.35 |
| GGAACCATCCAAAAAAAAAAAAAAAATAATAATAAT [CACACA_negctrl_site383] | 8.09 ± 0.46 |
| ACATGTACAGAAATTTATATATATATATATATATAT [CACACA_negctrl_site1584] | 10.3 ± 0.33 |
| ATTATTATGTATTGCCGTACACATATTATCACAGAA [XGTACX_site3740] | 8.65 ± 0.37 |
| TATAAATAAACATTTACACACTCTTATAATAAATAT [CACACA_site1679] | 8.09 ± 0.36 |
| TCTTCATATATAATTGTACACACAAAAACGACATTG [CACACA_site8645] | 8.92 ± 0.38 |
| TATTATAATTAATATACACACGCTTATATATATATA [CACACA_site75] | 9.93 ± 0.3 |
| CTCACAATACTTACATGTACATATTATATATATAAA [XGTACX_site1880] | 9.11 ± 0.38 |
| GTTGAAATAAAATTAGTGCATATATAAATATATATA | 8.26 ± 0.11 |
| AACTAATAGTATATTACATGCAAAAGTAAAAGTAAA [TGCATGCA_site411] | 9.32 ± 0.2 |
| ACTGAAAAAAGAAATACACACATTCTGGATCAGATA [CACACA_site7760] | 8.57 ± 0.43 |
| TCATTCTTGTGTTTATGTACACATATTTATATTGTA [XGTACX_site710] | 8.6 ± 0.3 |
| TTATCATTTTTGGAATGTACTTACATTAAATATTTA [XGTACX_site4034] | 8.4 ± 0.45 |
| TATATGCAAAATGTCACACATGTGATAAATACATAT [CACACA_site4302] | 8.72 ± 0.36 |
| AGTACATTATAGAATACACACCTATACATTTATATA [CACACA_site6391] | 8.49 ± 0.41 |
| CCCAGGAATATAAAATGTACATAAAAAATACAAATT [XGTACX_site1708] | 9.26 ± 0.72 |
| ATTTTATTTTTTCACACACACATATATATATATATA [CACACA_site3334] | 10.2 ± 0.32 |
| TAAGCACAAGCACAAGCACACATTTATATATATATA [CACACA_site883] | 9.85 ± 0.4 |
| TTTTTTTTTTTTGGATGTACTTAATGAAAATGTTAC [XGTACX_site8980] | 8.19 ± 0.35 |
| ATAATAATATAAAAATGTACATATATTTATAATTGT [XGTACX_site3429] | 8.4 ± 0.34 |
| TATTTGTGAAGAAATTGTACTCATATCTACATTTAT [XGTACX_site2245] | 8.35 ± 0.35 |
| TCTTTGTATATATGTTCATTTGTAATATATATTCAT [TGCATGCA_negctrl_site467] | 8.57 ± 0.39 |

| Sequence | gcPBM binding intensity (ln) |
| --- | --- |
| TGATTATTTTATATTTGTACACATATCATATAAAAA [XGTACX_site5868] | 8.59 ± 0.25 |
| ATGCAAACTAAAAGACGTACAGAAAAGTATCATACT [XGTACX_site8766] | 8.87 ± 0.4 |
| ACGTTTTTGAGTAGTACACACACAATAAGGATGGAT [CACACA_site9044] | 8.96 ± 0.36 |
| ACATAATATTGAAGAAGTACAAATTTTATTTATTAT [XGTACX_site4113] | 8.28 ± 0.27 |
| TCATTATTATATAATTGTACATAATAATTATATCCA [XGTACX_site1801] | 8.33 ± 0.4 |
| CCTCATATTATAGACACACACAAAAAAAATAAAAAA [CACACA_site180] | 8.45 ± 0.57 |
| AATATAATATATATTAGTACATATATATATATATAT [XGTACX_site870] | 10.1 ± 0.29 |
| ATGTATGTGTATATATGTACATAATATATATCTTTT [XGTACX_site8666] | 8.65 ± 0.32 |
| TAATTACCATATGGTACACACATATATATCTGTATA [CACACA_site5849] | 8.73 ± 0.48 |
| AATAATATCTGAAAATGTACATTTTATTATAAACAT [XGTACX_site8441] | 8.62 ± 0.47 |
| AAGAAGAGTTATTGTAGTACATTTTTAAATGTAATA [XGTACX_site7664] | 8.32 ± 0.38 |
| AAGAATTATAGAAACACACATACATACAGACATACA [CACACA_site1943] | 8.95 ± 0.46 |
| TATTTGGGTATTTTTACACACATTAATATATATATA [CACACA_site9114] | 9.39 ± 0.11 |
| ATAATGGAAAAAAAATATAATAATACGAAATAGGAA [TGCATGCA_negctrl_site64] | 8.5 ± 0.21 |
| AAAGATAATAATATGCGTACATAAAAATATATGATA [XGTACX_site6884] | 8.59 ± 0.31 |
| TGAATCAATTGTTGCTGTACATAAGGTATACAATAA [XGTACX_site5127] | 8.73 ± 0.4 |
| TTTTTTTAATAAATTTATAACAATATGATAGGTGAC [CACACA_negctrl_site1783] | 8.88 ± 0.39 |
| AGTTAAATGAATCAATACATAAATATGTATATATAT [TGCATGCA_negctrl_site539] | 8.59 ± 0.057 |
| TGTATACACATATGTACACACATATAGATGTATATG [CACACA_site7447] | 8.44 ± 0.16 |
| TAAATAAATACATACACACACATACCTATATTTATA [CACACA_site7466] | 8.65 ± 0.45 |
| AATATAAATATAAATATAAATATATATATATATATA [TGCATGCA_negctrl_site603] | 9.97 ± 0.38 |
| TTTTATAAAAACAAAAACAAAGGCACTTTCTAAAGA [XGTACX_negctrl_site130] | 8.7 ± 0.52 |

| Sequence | gcPBM binding intensity (ln) |
| --- | --- |
| ATAATGTATATTATTGCACACATATATAAAATTATG [CACACA_site8280] | 8.55 ± 0.13 |
| CATTTTTTGTAAAATCGTACATATACATAAAGTGGT [XGTACX_site3423] | 8.66 ± 0.34 |
| CACAAAAGTAAGCACGCACACACAACATGAAATAAA [CACACA_site7938] | 8.71 ± 0.52 |
| ATATAAAATATGAGTAGTACATATTTTCTCATCTTA [XGTACX_site8595] | 8.24 ± 0.4 |
| GGGAAACGATTTAATACACACACGTATTATATATAT [CACACA_site1160] | 8.8 ± 0.19 |
| AATTTTATTTAAAGTGCATGTAAAATTAAAACTTTT [TGCATGCA_site989] | 8.54 ± 0.28 |
| AAAGACAAAAGGAATTGTACATAATATATAAAATAT [XGTACX_site2923] | 8.64 ± 0.42 |
| TATGAATTTATCTACAACATTTGAAATAAATTAAAA [CACACA_negctrl_site79] | 8.03 ± 0.45 |
| TAACAAATATTATTTTGTACATAATATATATATATA [XGTACX_site6898] | 9.79 ± 0.18 |
| AATACACACCTGTGGGTGCTTATAATAAGCCACAAA | 8.91 ± 0.085 |
| TATTTTTTTATTTATTGTACTTTAAAAAAAATTAAA [XGTACX_site6167] | 8.55 ± 0.35 |
| TATATATATTAATTTATTTATTTGTTTATTTATTTA [CACACA_negctrl_site185] | 8.41 ± 0.18 |
| ATATATTTATATTATACACACAAAAATATTTTGTAT [CACACA_site6262] | 8.33 ± 0.35 |
| TTATAAAAATATTACGCACACACAAACTTATTCATT [CACACA_site1970] | 8.58 ± 0.47 |
| ATATAATAATATTATACATGCAAAATATGTTCTTCA [TGCATGCA_site115] | 9.12 ± 0.44 |
| ATCGCATATACATTATATTTTATAATAATTATTTTT [GTGCAC_negctrl_site48] | 8.8 ± 0.37 |
| AGACTATCATTTTTTTAACACACAAAAAAAATAAAA [CACACA_site9173] | 8.29 ± 0.46 |
| GGATATATTATATGTACACACATATATAACGGATAT [CACACA_site1309] | 8.65 ± 0.35 |
| TGTATACCTTAATATACACACATACATATATATATA [CACACA_site8370] | 9.78 ± 0.2 |
| CAACAAAAGAAACACACACACACAAACACAAAAAAA [CACACA_site3389] | 8.24 ± 0.38 |
| ATATATAAATATAGCATACACACAAAAAAATAAAAT [CACACA_site2332] | 8.92 ± 0.48 |
| ATGTAATAAATACTACGTACATATATATGTGTTAAT [XGTACX_site3265] | 8.63 ± 0.36 |
